To fix the notation:
B1: PhoQ; a variant is named by its letters at X, in order, P23837 (parent)
chain: MKKLLRLFFPLSLRVRFLLATAAVVLVLSLAYGMVALIGYSVSFDKTTFRLLRGESNLFYTLAKWENNKLHVELPENIDKQSPTMTLIYDENGQLLWAQRDVPWLMKMIQPDWLKSNGFHEIEADVNDTSLLLSGDHSIQQQLQEVREDDDDAEMTHSVAVNVYPATSRMPKLTIVVVDTIPVELKSSYMVWSWFIYVLSANLLLVIPLLWVAAWWSLRPIEALAKEVRELEEHNRELLNPATTRELTSLVRNLNRLLKSERERYDKYRTTLTDLTHSLKTPLXXLQXXLRSLRSEKMSVSDAEPVMLEQISRISQQIGYYLHRASMRGGTLLSRELHPVAPLLDNLTSALNKVYQRKGVNISLDISPEISFVGEQNDFVEVMGNVLDNACKYCLEFVEISARQTDEHLYIVVEDDGPGIPLSKREVIFDRGQRVDTLRPGQGVGLAVAREITEQYEGKIVAGESMLGGARMEVIFGRQHSAPKDE

The other results are listed elsewhere or left out. A value given as a limit tells only on which side of the number the result lay.

The variants in the test derive from B1. The test is described as follows: enrichment ratio after two sorts for PhoP signalling (ratio (wild type AVST 3.29)); higher = more functional. The note with it: with PhoP (E. coli).
On to VMFR, for which the enrichment ratio is no more than 0.25.

On to RITC, for which the enrichment ratio was no more than 0.25.

Take SSHI: the enrichment ratio was 1.12.

ATIL: the enrichment ratio was determined as 7.02.

With TDQI, the enrichment ratio was no more than 0.25.

In the case of MPDW, the enrichment ratio is no more than 0.25.

For GARF, the enrichment ratio is no more than 0.25.

For the variant DGMS, the enrichment ratio was no more than 0.25.

On to MKVI, for which the enrichment ratio was no more than 0.25.

Take SKKT: the enrichment ratio was no more than 0.25.

With HTQP, the enrichment ratio is no more than 0.25.

Regarding HHHE, the enrichment ratio is no more than 0.25.

In the case of IFTW, the enrichment ratio is no more than 0.25.

Consider HHAW, for which the enrichment ratio is no more than 0.25.

Consider YLWA, for which the enrichment ratio was no more than 0.25.

As for LFHW, the enrichment ratio was no more than 0.25.

In the case of TVMQ, the enrichment ratio was determined as 5.08.

PDRF: the enrichment ratio was no more than 0.25.

EHSW: the enrichment ratio is no more than 0.25.

Turning to FPVD, the enrichment ratio was no more than 0.25.

In the case of QYSM, the enrichment ratio is no more than 0.25.

Turning to WNVQ, the enrichment ratio was no more than 0.25.

As for WCYG, the enrichment ratio is no more than 0.25.

With SPFA, the enrichment ratio was no more than 0.25.

For WCSY, the enrichment ratio is no more than 0.25.

IAYN: the enrichment ratio is no more than 0.25.

On to TMWR, for which the enrichment ratio is no more than 0.25.

For SSIL, the enrichment ratio amounted to 12.3.

For AHLI, the enrichment ratio turned out to be 4.17.

For the variant FYIA, the enrichment ratio is no more than 0.25.

In the case of RCKG, the enrichment ratio is no more than 0.25.

On to YIVR, for which the enrichment ratio is no more than 0.25.

Take KQVF: the enrichment ratio is no more than 0.25.

HWMK: the enrichment ratio was no more than 0.25.

VMHA: the enrichment ratio is no more than 0.25.

Consider LIVN, for which the enrichment ratio is no more than 0.25.

As for TGLY, the enrichment ratio amounted to 5.96.

For the variant FNGR, the enrichment ratio was no more than 0.25.

For the variant DRTE, the enrichment ratio was no more than 0.25.

Regarding VWYQ, the enrichment ratio was no more than 0.25.

For FNNL, the enrichment ratio is no more than 0.25.

Consider YSFN, for which the enrichment ratio was no more than 0.25.

In the case of RRIF, the enrichment ratio was no more than 0.25.

As for FTSF, the enrichment ratio is no more than 0.25.

Turning to SKIQ, the enrichment ratio was determined as 2.46.

As to DDNG, the enrichment ratio was no more than 0.25.

For the variant DLCI, the enrichment ratio is no more than 0.25.

In the case of GWTR, the enrichment ratio was no more than 0.25.

In the case of DSMC, the enrichment ratio is no more than 0.25.

Consider YYYE, for which the enrichment ratio was no more than 0.25.

As for HKEI, the enrichment ratio was no more than 0.25.

TNCY: the enrichment ratio is no more than 0.25.

Take GRCD: the enrichment ratio was no more than 0.25.

On to GRWD, for which the enrichment ratio is no more than 0.25.

Take KSQI: the enrichment ratio is no more than 0.25.

Regarding EHRA, the enrichment ratio is no more than 0.25.

For LSAF, the enrichment ratio is no more than 0.25.

As to MWAC, the enrichment ratio was no more than 0.25.

On to SNTP, for which the enrichment ratio is no more than 0.25.

Regarding KPCL, the enrichment ratio is no more than 0.25.

For the variant AKCS, the enrichment ratio was found to be 3.9.

SHPG: the enrichment ratio was no more than 0.25.

On to YCVV, for which the enrichment ratio is no more than 0.25.

As for MGRI, the enrichment ratio is no more than 0.25.

As to HVIR, the enrichment ratio was no more than 0.25.

With WWRH, the enrichment ratio was no more than 0.25.

On to AFMM, for which the enrichment ratio was no more than 0.25.

Regarding NLMG, the enrichment ratio was no more than 0.25.

As to LNYT, the enrichment ratio is no more than 0.25.

As for GRSQ, the enrichment ratio is no more than 0.25.

As to SLPG, the enrichment ratio was no more than 0.25.

Regarding YWQG, the enrichment ratio is no more than 0.25.

Regarding LKFI, the enrichment ratio was no more than 0.25.

Regarding TRSQ, the enrichment ratio is no more than 0.25.

Turning to RMPW, the enrichment ratio is no more than 0.25.

With HHMG, the enrichment ratio was no more than 0.25.

In the case of PRKA, the enrichment ratio was no more than 0.25.

For DAMP, the enrichment ratio is no more than 0.25.

For WYFS, the enrichment ratio was no more than 0.25.

As for IHSW, the enrichment ratio is no more than 0.25.

QGSG: the enrichment ratio turned out to be 2.59.

As for WGPP, the enrichment ratio was no more than 0.25.

RVAP: the enrichment ratio is no more than 0.25.

For the variant FGDD, the enrichment ratio is no more than 0.25.

As for AQED, the enrichment ratio was no more than 0.25.

Turning to TLWK, the enrichment ratio is no more than 0.25.

On to LYCF, for which the enrichment ratio is no more than 0.25.

With SQVH, the enrichment ratio was 5.84.

Take QLMF: the enrichment ratio is no more than 0.25.

Take VAYM: the enrichment ratio is 1.24.

As to DIDY, the enrichment ratio is no more than 0.25.

Consider LILK, for which the enrichment ratio is no more than 0.25.

Consider SMVD, for which the enrichment ratio was no more than 0.25.

As for PSQQ, the enrichment ratio was no more than 0.25.

For the variant MMNH, the enrichment ratio is no more than 0.25.

With FHWT, the enrichment ratio was no more than 0.25.

On to NSAL, for which the enrichment ratio was no more than 0.25.

As for VLSA, the enrichment ratio is no more than 0.25.

With SSTL, the enrichment ratio is 14.

TMGR: the enrichment ratio is no more than 0.25.

For MLFW, the enrichment ratio was 1.07.

With PRGL, the enrichment ratio is no more than 0.25.

FGNE: the enrichment ratio is no more than 0.25.

Consider KDSK, for which the enrichment ratio was no more than 0.25.

Consider HSWW, for which the enrichment ratio is no more than 0.25.

For the variant ALGR, the enrichment ratio is no more than 0.25.

Turning to MDKH, the enrichment ratio was no more than 0.25.

As for LMMR, the enrichment ratio is no more than 0.25.

With PKPG, the enrichment ratio was no more than 0.25.

Regarding YGPV, the enrichment ratio was no more than 0.25.

In the case of NGMK, the enrichment ratio was no more than 0.25.

Regarding LHGD, the enrichment ratio was no more than 0.25.

Turning to PEGN, the enrichment ratio was no more than 0.25.

For YMEC, the enrichment ratio is no more than 0.25.

For the variant GALP, the enrichment ratio was no more than 0.25.

Take MRRF: the enrichment ratio was no more than 0.25.

Regarding PPQN, the enrichment ratio is no more than 0.25.

ETQF: the enrichment ratio is no more than 0.25.

KYPL: the enrichment ratio is no more than 0.25.

In the case of HKWR, the enrichment ratio is no more than 0.25.

As to HRGN, the enrichment ratio was no more than 0.25.

On to TLQP, for which the enrichment ratio was no more than 0.25.

In the case of PWPM, the enrichment ratio is no more than 0.25.

Regarding KPAR, the enrichment ratio is no more than 0.25.

In the case of VAAA, the enrichment ratio is no more than 0.25.

For the variant FLTT, the enrichment ratio was no more than 0.25.

Consider GAVI, for which the enrichment ratio is no more than 0.25.

Consider IMHP, for which the enrichment ratio is no more than 0.25.

With LKNP, the enrichment ratio is no more than 0.25.

Turning to KLTT, the enrichment ratio is no more than 0.25.

For the variant LKWK, the enrichment ratio is no more than 0.25.

As for DVMI, the enrichment ratio was no more than 0.25.

Take KIFQ: the enrichment ratio is no more than 0.25.

For VDMS, the enrichment ratio was no more than 0.25.

In the case of YAHA, the enrichment ratio was no more than 0.25.

With EQED, the enrichment ratio was no more than 0.25.

Take PHVP: the enrichment ratio was no more than 0.25.

Turning to GFQK, the enrichment ratio is no more than 0.25.

For the variant GAFT, the enrichment ratio is no more than 0.25.

Consider WCPH, for which the enrichment ratio was no more than 0.25.

For NCPD, the enrichment ratio was no more than 0.25.

With MFIS, the enrichment ratio is no more than 0.25.

With MCLA, the enrichment ratio amounted to 3.12.

For TMRY, the enrichment ratio is no more than 0.25.

With GSGD, the enrichment ratio is no more than 0.25.

For IMRV, the enrichment ratio was no more than 0.25.

For GHYY, the enrichment ratio is no more than 0.25.

FAHA: the enrichment ratio is no more than 0.25.

Regarding YCTL, the enrichment ratio was found to be 0.295.

On to AITD, for which the enrichment ratio is no more than 0.25.

Take VQTR: the enrichment ratio was no more than 0.25.

As for MYSA, the enrichment ratio was no more than 0.25.

Consider NRGT, for which the enrichment ratio was no more than 0.25.
